These results are taken from publication PMC4336329 (PLoS ONE, 2015).

Molecules are shown by their SMILES. Among all 310,000 compounds or so, about 14,000 (4.5%) showed an effect of 50% or more. The effect is printed as a negative number. Some of the results follow.
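Further: peak tail current of the secondary pulse compared with the same well before compound.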

For this assay, the target named is human ether-à-go-go-related gene (hERG) potassium channel (human, UniProt Q12809). Nature of the assay: primary screen, population patch clamp on CHO cells stably expressing hERG.
Chain of human ether-à-go-go-related gene (hERG) potassium channel (Q12809 whole entry, looked up): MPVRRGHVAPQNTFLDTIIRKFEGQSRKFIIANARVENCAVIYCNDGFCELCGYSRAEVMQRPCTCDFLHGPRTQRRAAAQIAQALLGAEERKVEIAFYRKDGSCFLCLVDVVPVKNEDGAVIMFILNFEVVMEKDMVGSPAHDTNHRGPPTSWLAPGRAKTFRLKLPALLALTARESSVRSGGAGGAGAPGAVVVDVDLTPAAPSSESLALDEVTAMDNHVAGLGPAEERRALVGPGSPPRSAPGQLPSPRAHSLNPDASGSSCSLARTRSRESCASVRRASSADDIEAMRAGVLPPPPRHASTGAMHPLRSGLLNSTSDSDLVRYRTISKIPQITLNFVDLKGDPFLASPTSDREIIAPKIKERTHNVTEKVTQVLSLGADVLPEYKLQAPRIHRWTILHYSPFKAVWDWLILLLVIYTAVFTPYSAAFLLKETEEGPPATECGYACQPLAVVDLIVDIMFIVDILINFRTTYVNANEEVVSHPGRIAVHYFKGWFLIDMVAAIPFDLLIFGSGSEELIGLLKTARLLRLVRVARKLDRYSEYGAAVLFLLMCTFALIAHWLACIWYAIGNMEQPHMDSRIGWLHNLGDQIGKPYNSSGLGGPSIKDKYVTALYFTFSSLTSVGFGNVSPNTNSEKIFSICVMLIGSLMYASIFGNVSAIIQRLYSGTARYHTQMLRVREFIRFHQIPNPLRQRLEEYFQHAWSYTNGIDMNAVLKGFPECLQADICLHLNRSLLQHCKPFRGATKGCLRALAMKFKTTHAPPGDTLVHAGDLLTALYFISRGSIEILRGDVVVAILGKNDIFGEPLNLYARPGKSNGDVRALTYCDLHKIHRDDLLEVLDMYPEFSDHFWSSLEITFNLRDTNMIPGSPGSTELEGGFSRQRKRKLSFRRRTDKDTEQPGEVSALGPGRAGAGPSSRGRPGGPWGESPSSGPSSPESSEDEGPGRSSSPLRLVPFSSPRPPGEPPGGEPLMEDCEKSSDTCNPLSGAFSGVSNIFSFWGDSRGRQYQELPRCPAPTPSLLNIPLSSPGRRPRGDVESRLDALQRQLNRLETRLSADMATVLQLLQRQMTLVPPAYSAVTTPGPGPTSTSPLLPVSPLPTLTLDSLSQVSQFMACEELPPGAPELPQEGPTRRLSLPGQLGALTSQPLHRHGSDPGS
In the case of `Cc1ccnc(NC(=S)NC(=O)c2cccs2)c1`, the “hERG current change (%, negative = inhibition) at 10uM” value turned out to be 9.29%. The figure for `CC(OCCN(C)C)C(=O)C12CC3CC(CC(C3)C1)C2.Cl` (stereo not shown) is 6.59%. For `CCOC(=O)COc1cc(OCC(=O)OCC)c2c(=O)cc(-c3ccccc3)oc2c1` the value was -62.6%.

With `O=C(CN(c1ccc(F)cc1)S(=O)(=O)c1ccccc1)N1CCOCC1`, the “hERG current change (%, negative = inhibition) at 10uM” value is given as 2.48%. Consider `O=C(CSc1nnc(-c2cccs2)o1)Nc1cccc(S(=O)(=O)N2CCCCC2)c1`, for which the “hERG current change (%, negative = inhibition) at 10uM” value is recorded as 5.19%. In the case of `Cc1cc(-c2nnc(SCC(=O)Nc3ccc(Br)cc3F)n2N)n[nH]1`, the “hERG current change (%, negative = inhibition) at 10uM” value was determined as 1.3%. For `CC(=O)c1ccc(Oc2ncnc3sccc23)c(CN2CCOCC2)c1` the value was 9.09%; for `CCC1(c2cccc(O)c2)CCCCN(C)C1.Cl` (stereo not shown), -18.3%; for `COc1cccc(/C=N/NC(=O)CCCC(=O)NC2CCCCC2)c1`, -10.8%.

As for `C=CCNC(=O)Nc1ccc(F)cc1F`, the “hERG current change (%, negative = inhibition) at 10uM” value was determined as 4.39%. For `Cn1cc(/C=C/c2cc[n+](C)cc2)c2cc(F)ccc21.[I-]` the value was -12.8%. The figure for `CCOC(=O)c1c(C)[nH]c(C(=O)OCc2ccc(C)cc2)c1C` is 13%.

On to `CC(C)[C@H](NC(N)=O)C(=O)NCCc1ccc(Cl)cc1`, for which the “hERG current change (%, negative = inhibition) at 10uM” value is reported as 3.09%. With `CC1=C(C(=O)OCc2ccc(C)cc2)C(c2ccc(O)c([N+](=O)[O-])c2)NC(=O)N1` (stereo not shown), the “hERG current change (%, negative = inhibition) at 10uM” value was 4.03%. With `O=C(Nc1ccc(Cl)cc1)Nc1ccccc1CC[N+](=O)[O-]`, the “hERG current change (%, negative = inhibition) at 10uM” value amounted to 7.79%. As for `O=C(Nc1nc2ccc(Br)cc2s1)c1ccco1`, the “hERG current change (%, negative = inhibition) at 10uM” value was determined as 19%. The figure for `COc1ccc(NC(=O)C(Cc2ccccc2)n2cccc2)cc1` (stereo not shown) is -14.1%; for `CCc1ccccc1NS(=O)(=O)c1cc2c(cc1C)n(C)c(=O)c(=O)n2C` it is -26.3%. For `CC(=O)NN1C(=O)c2ccccc2NC1c1cccc([N+](=O)[O-])c1` (stereo not shown) the value was 11.3%; for `COc1cc(/C=C(\NC(=O)c2ccccc2)C(=O)Nc2cccc(O)c2)c([N+](=O)[O-])cc1OC`, -4.98%.

For `CC(C)Oc1ccc(CNC(=O)c2ccc3c(c2)N(C)CCS3)cc1`, the “hERG current change (%, negative = inhibition) at 10uM” value is -8.67%.

On to `Cn1nc(C(F)(F)F)c(-c2ccc(Br)cc2)c1NC(=O)CSCC(=O)O`, for which the “hERG current change (%, negative = inhibition) at 10uM” value is reported as -18.6%. Take `O=C(Nc1ccccc1)Nc1nnc(Cc2ccc([N+](=O)[O-])cc2)s1`: the “hERG current change (%, negative = inhibition) at 10uM” value is reported as -7.66%. Take `CN(CC(=O)Nc1ccc(F)c(F)c1F)C(=O)CCc1nc2sc3c(c2c(=O)[nH]1)CCCC3`: the “hERG current change (%, negative = inhibition) at 10uM” value is given as -8.01%. Take `CCn1cc(CN2CCN(Cc3ccc(OC)c(C)c3C)C(CCO)C2)c(C)n1` (stereo not shown): the “hERG current change (%, negative = inhibition) at 10uM” value is listed as -23.1%. Consider `CC(C)c1ccc(NC2CCCN(C(=O)c3n[nH]c4c3CCC4)C2)cc1` (stereo not shown), for which the “hERG current change (%, negative = inhibition) at 10uM” value was determined as 5.38%. For `Oc1ccc(Br)cc1CN1CCN(c2ccccc2)CC1` the value was 25.3%; for `COc1ccc(C2c3ccc4ccccc4c3Oc3ncn4nc(Cc5ccccc5)nc4c32)cc1OC` (stereo not shown), 13.2%.

On to `O=C(Nc1ccc(F)cc1)c1ccc2c(=O)n(CC3CCCO3)c(=S)[nH]c2c1` (stereo not shown), for which the “hERG current change (%, negative = inhibition) at 10uM” value is reported as 21.6%. Take `COc1ccc(Cc2nnn(CC(=O)O)n2)cc1`: the “hERG current change (%, negative = inhibition) at 10uM” value is recorded as 5.94%.

Consider `O=C(NCCNC(=O)c1cc(OCC(F)(F)F)ccc1OCC(F)(F)F)Nc1ccc(OC(F)(F)F)cc1`, for which the “hERG current change (%, negative = inhibition) at 10uM” value is given as -6.34%. On to `CN(C)S(=O)(=O)c1cccc(C(=O)NCC2(N3CCOCC3)CCCCC2)c1`, for which the “hERG current change (%, negative = inhibition) at 10uM” value is given as -13.4%. The figure for `Cc1nc2ccccc2c2oc(C(=O)NC3CC3)cc12` is 1.88%.

Consider `O=C(NCC1CC1)Nc1ccc(Cl)cc1`, for which the “hERG current change (%, negative = inhibition) at 10uM” value is on record as 17.7%.

On to `Cc1cccc(NC(=O)c2cc(-c3ccco3)nc3ccccc23)n1`, for which the “hERG current change (%, negative = inhibition) at 10uM” value was 4.05%.

As to `CC(=O)c1cccc(NC(=O)CN(C)S(=O)(=O)c2cccc3nsnc23)c1`, the “hERG current change (%, negative = inhibition) at 10uM” value is -31.9%.

For the compound `O=C(CN1C(=O)COc2ccccc21)N(Cc1ccc2c(c1)OCO2)CC1CCCO1` (stereo not shown), the “hERG current change (%, negative = inhibition) at 10uM” value is -17.2%. The figure for `CCOc1ccc(C(=O)Nc2c3c(nn2-c2ccc(C)cc2)CS(=O)C3)cc1OCC` (stereo not shown) is 6.79%; for `Cc1oc(-c2ccccc2F)nc1CS(=O)(=O)CC(=O)NC1CCCC(C)C1C` (stereo not shown) it is -18%; for `O=C(CSc1nnc(Cn2nnc(-c3ccccc3)n2)n1-c1ccccc1)Nc1ccc(F)cc1` it is 3.55%. The figure for `O=C(c1cc2cc(F)ccc2[nH]1)N1CCN(c2ccc(F)cc2)CC1` is -4.93%; for `Cc1ccc(N(C)S(=O)(=O)c2nnc(NC(=O)c3ccco3)s2)cc1` it is 9.73%; for `COCCCNC(=O)CNC(=S)N(Cc1ccccc1)Cc1cccnc1` it is -9.77%. The figure for `CCOC(=O)/C=C1/SCC(=O)N1CC(=O)Nc1cccc(F)c1` is 2.79%; for `COc1cccc(C2CC3C(=O)C=CC2N3Cc2ccccc2)c1` (stereo not shown) it is 2.61%.

On to `O=S(=O)(Nc1nc(SCc2ccc(Cl)cc2)n[nH]1)c1ccc(F)cc1`, for which the “hERG current change (%, negative = inhibition) at 10uM” value is -3.34%. Regarding `COc1ccc(CNC(=O)[C@H](C)NC(=O)[C@@H]2Cc3ccccc3CN2)cc1`, the “hERG current change (%, negative = inhibition) at 10uM” value was 11.7%. Regarding `Cc1oc(-c2cccc(Cl)c2)nc1CS(=O)(=O)CC(=O)NC1CC1`, the “hERG current change (%, negative = inhibition) at 10uM” value is listed as 6.61%. Consider `COC(=O)c1sc2nc(-c3ccco3)ccc2c1N`, for which the “hERG current change (%, negative = inhibition) at 10uM” value is -7.36%. The figure for `O=C(O)c1ccccc1C(=O)c1cccc2ccccc12` is 11.1%. The figure for `O=C(Cc1sc(-c2ccccc2)nc1-c1ccccc1)Nc1ccccc1` is 5.75%; for `CCN(CC(=O)Nc1c(F)cccc1F)C(=O)Cc1ccc(OC)c(S(=O)(=O)N2CCOCC2)c1` it is 8.69%; for `CCOc1cc(C2C(C#N)=C(N)Oc3n[nH]c(-c4ccccc4)c32)ccc1O` (stereo not shown) it is -4.74%.

With `COc1ccc(S(=O)(=O)N(C)CC(=O)N2CCC(C(N)=O)CC2)cc1`, the “hERG current change (%, negative = inhibition) at 10uM” value came out at 5.54%.

Take `O=C(/C=C/Nc1cccc(C(F)(F)F)c1)c1ccc(Oc2ncccn2)cc1`: the “hERG current change (%, negative = inhibition) at 10uM” value was determined as 13.3%.

Consider `O=C(Nc1ccc(Cl)cn1)c1ccc(-c2ccc(Cl)c(Cl)c2)o1`, for which the “hERG current change (%, negative = inhibition) at 10uM” value amounted to 10.1%. For `CC(=O)c1ccccc1OC(=O)c1ccc([N+](=O)[O-])o1` the value was 18.5%; for `COC(=O)c1ccc(-c2ccc([C@H]3[C@H]4C=CC[C@@H](C)[C@@H]4C(=O)N3Cc3ccccc3)c(F)c2)cc1`, 21.3%. For `COc1ccc(-c2cc(=O)oc3cc(OCC(=O)NCCCn4ccnc4)ccc23)cc1` the value was -65.4%. Consider `CCn1nnnc1SCC(=O)N1CCN(c2ccccc2)CC1`, for which the “hERG current change (%, negative = inhibition) at 10uM” value was -10.4%. Regarding `O=C1c2ccccc2-c2c1cccc2C(=O)N(CCO)CCO`, the “hERG current change (%, negative = inhibition) at 10uM” value is listed as -0.51%. For `CNC(=O)Nc1cccc2cccnc12` the value was 2.73%; for `CCC(C)N=Cc1c(NCc2ccco2)nc2c(C)cccn2c1=O` (stereo not shown), -7.78%. For `O=[N+]([O-])c1cc(C(F)(F)F)ccc1Sc1nccn1Cc1ccccc1` the value was -30.3%; for `Cc1ccc(C)c(N(C(=O)Cn2nnc3ccccc32)C(C(=O)NCc2ccco2)c2ccncc2)c1` (stereo not shown), 0.187%.

As for `Cc1cccc(OCCCn2c(CCNC(=O)C(C)C)nc3ccccc32)c1`, the “hERG current change (%, negative = inhibition) at 10uM” value is -23.6%. Regarding `Cc1ccc(NC(=O)NCC2CCN(Cc3cc(C)ccc3Cl)CC2)c(C)c1`, the “hERG current change (%, negative = inhibition) at 10uM” value is on record as -58.3%. On to `CC(C)c1ccc(NC(=O)COc2nncc3ccccc23)cc1`, for which the “hERG current change (%, negative = inhibition) at 10uM” value is on record as 14.4%. The figure for `COCCCNC(=O)Nc1ccc(F)cc1F` is 12.1%. As for `CC(=O)O[C@@]12CO[C@@H]1C[C@@H](O)[C@@]1(C)C(=O)[C@H](O)C3=C(C)[C@@H](OC(=O)[C@H](O)[C@@H](NC(=O)c4ccccc4)c4ccccc4)C[C@@](O)([C@@H](OC(=O)c4ccccc4)C12)C3(C)C` (stereo partly shown), the “hERG current change (%, negative = inhibition) at 10uM” value is 5.84%. The figure for `Fc1cccc(Nc2ncnc3[nH]ncc23)c1` is 21.4%. Take `CC(=O)c1ccc(NC(=O)Oc2ccccc2)cc1`: the “hERG current change (%, negative = inhibition) at 10uM” value is -6.44%.

Turning to `COc1ccc(S(=O)(=O)N(CC(=O)NCc2ccco2)c2ccc(F)cc2)cc1`, the “hERG current change (%, negative = inhibition) at 10uM” value was -3.88%. For `Cc1sc(NC(=O)c2ccccc2F)c(CN2CCCCC2C)c1C` (stereo not shown), the “hERG current change (%, negative = inhibition) at 10uM” value is reported as -7.58%. The figure for `COc1ccc(-c2nnc(SCCC(=O)O)n2-c2ccccc2)cc1OC` is -8.98%; for `Cc1c(O)c(CN2CCCC2)cc2c3c(c(=O)oc12)CCC3` it is 15.2%; for `Cc1ccc(SCc2cc(=O)n3[nH]c(C)nc3n2)cc1` it is 9.38%.

For `O=C(COc1ccc(Cl)cc1Cl)Nc1ccc(-c2ccc(N3CCOCC3)nn2)cc1`, the “hERG current change (%, negative = inhibition) at 10uM” value came to 13.7%. For `O=C(NNc1nc(=O)c2cccnc2s1)c1ccccc1O` the value was 20.9%.

For `CN(CC(=O)NCc1ccc(F)cc1)CC(=O)Nc1ccc(Cl)c(C(F)(F)F)c1`, the “hERG current change (%, negative = inhibition) at 10uM” value is -30.2%. The figure for `COC(=O)CC1SC(=O)NC1=Nc1ccccc1` (stereo not shown) is 5.89%; for `Cn1c(=O)c([N+](=O)[O-])c(NCCCn2ccnc2)c2ccccc21` it is 26.5%. Take `O=C(CSc1n[nH]c(-c2ccccc2)n1)c1ccc(O)c(O)c1`: the “hERG current change (%, negative = inhibition) at 10uM” value is -6.58%. The figure for `CCc1ccccc1OCCCN1CCCC1.O=C(O)C(=O)O` is -17.6%; for `CCNc1nc(NC(C)(C)C)nc(N(CC)n2cnnc2)n1` it is 0.705%.
